Results taken from patent publication US20260297081A1, “COMPOUNDS AND METHODS OF TREATING CANCERS” (Cullgen Inc., priority 2023, published 2026).
The name of at least one read-out is uncertain.

System: CyclinD1 (CCND1)
Assay: Cyclin D1 (CCND1) percentage degradation in Calu-1 cells (Table 6)
Assay type: cell-based
Details: 16 hours

| Compound | CyclinD1 Degradation (40 nM) | CyclinD1 Degradation (200 nM) |
| --- | --- | --- |
| CC(=O)c1c(C)c2cnc(Nc3ccc(N4CCN(CC(=O)NC(C)CCCCNc5nc(C6CC6)ccc5C(=O)Nc5ccc(C)c(C6CC6)n5)CC4)cn3)nc2n(C2CCCC2)c1=O (centres unmarked) [CPD-60, 2-((5-(2-(4-(6-((6-Acetyl-8-cyclopentyl-5-methyl-7-oxo-7,8-dihydropyrido[2,3-d]pyrimidin-2-yl)amino)pyridin-3-yl)piperazin-1-yl)acetamido)hexyl)amino)-6-cyclopropyl-N-(6-cyclopropyl-5-methylpyridin-2-yl)nicotinamide] | B (50%< degradation activity <80%) | A (degradation activity >80%) |
| CNc1ccc(C(=O)Nc2nc(C3CC3)ccc2C)c(NCCCCCNC(=O)CN2CCN(c3ccc(Nc4ncc5c(C)c(C(C)=O)c(=O)n(C6CCCC6)c5n4)nc3)CC2)n1 [CPD-61, 2-((5-(2-(4-(6-((6-Acetyl-8-cyclopentyl-5-methyl-7-oxo-7,8-dihydropyrido[2,3-d]pyrimidin-2-yl)amino)pyridin-3-yl)piperazin-1-yl)acetamido)pentyl)amino)-N-(6-cyclopropyl-3-methylpyridin-2-yl)-6-(methylamino)nicotinamide] | D (degradation activity <30%) | D (degradation activity <30%) |
| CNc1ccc(C(=O)Nc2ccc(N(C)C)nn2)c(NC2CC3(C2)CN(C(=O)CCN2CCN(c4ccc(Nc5ncc6c(C)c(C(C)=O)c(=O)n(C7CCCC7)c6n5)nc4)CC2)C3)n1 [CPD-62, 2-((2-(3-(4-(6-((6-Acetyl-8-cyclopentyl-5-methyl-7-oxo-7,8-dihydropyrido[2,3-d]pyrimidin-2-yl)amino)pyridin-3-yl)piperazin-1-yl)propanoyl)-2-azaspiro[3.3]heptan-6-yl)amino)-N-(6-(dimethylamino)pyridazin-3-yl)-6-(methylamino)nicotinamide] | A (degradation activity >80%) | A (degradation activity >80%) |
| CC(=O)c1c(C)c2cnc(Nc3ccc(N4CCN(CC(=O)NCCCCCNc5nc(C(C)C)ccc5C(=O)Nc5ccc(N(C)C)nn5)CC4)cn3)nc2n(C2CCCC2)c1=O [CPD-63, 2-((5-(2-(4-(6-((6-Acetyl-8-cyclopentyl-5-methyl-7-oxo-7,8-dihydropyrido[2,3-d]pyrimidin-2-yl)amino)pyridin-3-yl)piperazin-1-yl)acetamido)pentyl)amino)-N-(6-(dimethylamino)pyridazin-3-yl)-6-isopropylnicotinamide] | A (degradation activity >80%) | A (degradation activity >80%) |
| CNc1ccc(C(=O)NC2CC(N(C)C)C2)c(NCCCCCNC(=O)CN2CCN(c3ccc(Nc4ncc5c(C)c(C(C)=O)c(=O)n(C6CCCC6)c5n4)nc3)CC2)n1 (centres unmarked) [CPD-64, 2-((5-(2-(4-(6-((6-Acetyl-8-cyclopentyl-5-methyl-7-oxo-7,8-dihydropyrido[2,3-d]pyrimidin-2-yl)amino)pyridin-3-yl)piperazin-1-yl)acetamido)pentyl)amino)-N-(3-(dimethylamino)cyclobutyl)-6-(methylamino)nicotinamide] | D (degradation activity <30%) | D (degradation activity <30%) |
| CNc1ccc(C(=O)NC2CC(CN(C)C)C2)c(NCCCCCNC(=O)CN2CCN(c3ccc(Nc4ncc5c(C)c(C(C)=O)c(=O)n(C6CCCC6)c5n4)nc3)CC2)n1 (centres unmarked) [CPD-65, 2-((5-(2-(4-(6-((6-Acetyl-8-cyclopentyl-5-methyl-7-oxo-7,8-dihydropyrido[2,3-d]pyrimidin-2-yl)amino)pyridin-3-yl)piperazin-1-yl)acetamido)pentyl)amino)-N-(3-((dimethylamino)methyl)cyclobutyl)-6-(methylamino)nicotinamide] | D (degradation activity <30%) | D (degradation activity <30%) |
| [2H]C([2H])([2H])Nc1ccc(C(=O)Nc2ccc(N(C)C)nn2)c(NCCCCCNC(=O)CN2CCN(c3ccc(Nc4ncc5c(C)c(C(C)=O)c(=O)n(C6CCCC6)c5n4)nc3)CC2)n1 [CPD-66, 2-((5-(2-(4-(6-((6-Acetyl-8-cyclopentyl-5-methyl-7-oxo-7,8-dihydropyrido[2,3-d]pyrimidin-2-yl)amino)pyridin-3-yl)piperazin-1-yl)acetamido)pentyl)amino)-N-(6-(dimethylamino)pyridazin-3-yl)-6-((methyl-d3)amino)nicotinamide] | A (degradation activity >80%) | A (degradation activity >80%) |
| CNc1ccc(C(=O)NC2CC3(C2)CC(N(C)C)C3)c(NCCCCCNC(=O)CN2CCN(c3ccc(Nc4ncc5c(C)c(C(C)=O)c(=O)n(C6CCCC6)c5n4)nc3)CC2)n1 (centres unmarked) [CPD-67, 2-((5-(2-(4-(6-((6-Acetyl-8-cyclopentyl-5-methyl-7-oxo-7,8-dihydropyrido[2,3-d]pyrimidin-2-yl)amino)pyridin-3-yl)piperazin-1-yl)acetamido)pentyl)amino)-N-(6-(dimethylamino)spiro[3.3]heptan-2-yl)-6-(methylamino)nicotinamide] | D (degradation activity <30%) | D (degradation activity <30%) |
| CC(=O)c1c(C)c2cnc(Nc3ccc(N4CCN(CC(=O)NCCCCCNc5nc(C(F)(F)F)ccc5C(=O)Nc5ccc(N(C)C)nn5)CC4)cn3)nc2n(C2CCCC2)c1=O [CPD-68, 2-((5-(2-(4-(6-((6-Acetyl-8-cyclopentyl-5-methyl-7-oxo-7,8-dihydropyrido[2,3-d]pyrimidin-2-yl)amino)pyridin-3-yl)piperazin-1-yl)acetamido)pentyl)amino)-N-(6-(dimethylamino)pyridazin-3-yl)-6-(trifluoromethyl)nicotinamide] | A (degradation activity >80%) | A (degradation activity >80%) |
| CNc1ccc(C(=O)Nc2ccc3c(n2)CCC3)c(NC2CC3(CC(NC(=O)CN4CCN(c5ccc(Nc6ncc7c(C)c(C(C)=O)c(=O)n(C8CCCC8)c7n6)nc5)CC4)C3)C2)n1 (centres unmarked) [CPD-69, 2-((6-(2-(4-(6-((6-Acetyl-8-cyclopentyl-5-methyl-7-oxo-7,8-dihydropyrido[2,3-d]pyrimidin-2-yl)amino)pyridin-3-yl)piperazin-1-yl)acetamido)spiro[3.3]heptan-2-yl)amino)-N-(6,7-dihydro-5H-cyclopenta[b]pyridin-2-yl)-6-(methylamino)nicotinamide] | D (degradation activity <30%) | A (degradation activity >80%) |
| CNc1ccc(C(=O)Nc2cc(C)n(C)n2)c(NC2CC3(CC(NC(=O)CN4CCN(c5ccc(Nc6ncc7c(C)c(C(C)=O)c(=O)n(C8CCCC8)c7n6)nc5)CC4)C3)C2)n1 (centres unmarked) [CPD-70, 2-((6-(2-(4-(6-((6-Acetyl-8-cyclopentyl-5-methyl-7-oxo-7,8-dihydropyrido[2,3-d]pyrimidin-2-yl)amino)pyridin-3-yl)piperazin-1-yl)acetamido)spiro[3.3]heptan-2-yl)amino)-N-(1,5-dimethyl-1H-pyrazol-3-yl)-6-(methylamino)nicotinamide] | A (degradation activity >80%) | A (degradation activity >80%) |
| CNc1ccc(C(=O)N(C)c2ccc(N(C)C)nn2)c(NCCCCCNC(=O)CN2CCN(c3ccc(Nc4ncc5c(C)c(C(C)=O)c(=O)n(C6CCCC6)c5n4)nc3)CC2)n1 [CPD-71, 2-((5-(2-(4-(6-((6-acetyl-8-cyclopentyl-5-methyl-7-oxo-7,8-dihydropyrido[2,3-d]pyrimidin-2-yl)amino)pyridin-3-yl)piperazin-1-yl)acetamido)pentyl)amino)-N-(6-(dimethylamino)pyridazin-3-yl)-N-methyl-6-(methylamino)nicotinamide] | D (degradation activity <30%) | D (degradation activity <30%) |
| CNc1ccc(C(=O)Nc2cccc(C3CC3)n2)c(NC2CC3(CC(NC(=O)CN4CCN(c5ccc(Nc6ncc7c(C)c(C(C)=O)c(=O)n(C8CCCC8)c7n6)nc5)CC4)C3)C2)n1 (centres unmarked) [CPD-72, 2-((6-(2-(4-(6-((6-Acetyl-8-cyclopentyl-5-methyl-7-oxo-7,8-dihydropyrido[2,3-d]pyrimidin-2-yl)amino)pyridin-3-yl)piperazin-1-yl)acetamido)spiro[3.3]heptan-2-yl)amino)-N-(6-cyclopropylpyridin-2-yl)-6-(methylamino)nicotinamide] | B (50%< degradation activity <80%) | A (degradation activity >80%) |
| CNc1ccc(C(=O)Nc2ccc(N(C)C)nn2)c(NC[C@H]2CC[C@H](NC(=O)CN3CCN(c4ccc(Nc5ncc6c(C)c(C(C)=O)c(=O)n(C7CCCC7)c6n5)nc4)CC3)CC2)n1 [CPD-73] | A (degradation activity >80%) | A (degradation activity >80%) |
| CNc1ccc(C(=O)Nc2ccc(C3CC3)nc2)c(NC2CC3(CC(NC(=O)CN4CCN(c5ccc(Nc6ncc7c(C)c(C(C)=O)c(=O)n(C8CCCC8)c7n6)nc5)CC4)C3)C2)n1 (centres unmarked) [CPD-74, 2-((6-(2-(4-(6-((6-Acetyl-8-cyclopentyl-5-methyl-7-oxo-7,8-dihydropyrido[2,3-d]pyrimidin-2-yl)amino)pyridin-3-yl)piperazin-1-yl)acetamido)spiro[3.3]heptan-2-yl)amino)-N-(6-cyclopropylpyridin-3-yl)-6-(methylamino)nicotinamide] | D (degradation activity <30%) | D (degradation activity <30%) |
| CNc1ccc(C(=O)Nc2cccc(C)n2)c(NC2CC3(CC(NC(=O)CN4CCN(c5ccc(Nc6ncc7c(C)c(C(C)=O)c(=O)n(C8CCCC8)c7n6)nc5)CC4)C3)C2)n1 (centres unmarked) [CPD-75, 2-((6-(2-(4-(6-((6-Acetyl-8-cyclopentyl-5-methyl-7-oxo-7,8-dihydropyrido[2,3-d]pyrimidin-2-yl)amino)pyridin-3-yl)piperazin-1-yl)acetamido)spiro[3.3]heptan-2-yl)amino)-6-(methylamino)-N-(6-methylpyridin-2-yl)nicotinamide] | A (degradation activity >80%) | A (degradation activity >80%) |
